The list shows a part of the results.

The target of this experiment is T1, OsWOX13 (Oryza sativa, UniProt Q5QMM3 1-267).
T1 sequence: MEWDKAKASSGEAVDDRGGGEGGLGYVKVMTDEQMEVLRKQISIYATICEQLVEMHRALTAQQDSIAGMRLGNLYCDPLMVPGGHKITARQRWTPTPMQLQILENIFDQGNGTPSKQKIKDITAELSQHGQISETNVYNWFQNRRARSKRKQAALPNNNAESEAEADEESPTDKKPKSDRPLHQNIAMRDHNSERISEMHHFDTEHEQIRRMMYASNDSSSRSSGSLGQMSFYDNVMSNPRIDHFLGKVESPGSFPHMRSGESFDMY
In words: protein-binding microarray (RPBM); PBS, 2% BSA, 51.3 ng/ul salmon testes DNA, 50 uM zinc acetate, 200 nM TF, 25 C, 1 h; high values mean tight binding. As to conditions: protein: recombinant; tags: N-terminal polyhistidine and DsRed monomer fusion (pET32a); label: CyDye5-dUTP incorporated in the synthesized complementary strand; 3' TTTTT single-stranded linker to array surface; dsDNA, one strand shown. The method, boiled down: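 Ni–NTA purification followed expression in E. coli BL21-CodonPlus of transcription factors fused N-terminally to a polyhistidine tag and DsRed. At 200 nM in PBS with 2% BSA, salmon testes DNA and 50 µM zinc acetate, the protein was incubated for 1 h at 25 °C with a custom Agilent array that had been primer-extended with Cy5-dUTP and blocked with 2% BSA. After washing, the array was read on an Axon 4000B scanner. The binding signal is per-feature fluorescence intensity in arbitrary units.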
For the sequence “GCATTAATGTCTGGATTGAGTGCTGCCTTGTACATGTCTCCGGAGTCACCTAGTGCAG”, the binding signal was 3950 fluorescence intensity (a.u.).
As to “ATAAAATGTTAAGGACTAAATTGATCATTAAATAAAAGTTCGGAGTCACCTAGTGCAG”, the binding signal is 17000 fluorescence intensity (a.u.).
For the sequence “CCCTTCTTAATTGCCCCAACTGTTTGTTTCCTGATTTGATCGGAGTCACCTAGTGCAG”, the binding signal was 23900 fluorescence intensity (a.u.).
For “GTGTAGGCCTTGATTGGGCCGAAGCAAATCTCACCGTAACCGGAGTCACCTAGTGCAG” the value was 10500 fluorescence intensity (a.u.); for “ATCTATCTATCATCAAGCTGATCATCCATACTTGTTGATCCGGAGTCACCTAGTGCAG”, 4970 fluorescence intensity (a.u.); for “TGTATATTAACTGATGGAAATATAATAGTATCACTATATGCGGAGTCACCTAGTGCAG”, 13600 fluorescence intensity (a.u.).
“GACTGATATGTTTAAAATTAAGCTAGTGTGCTCAGGTCTGCGGAGTCACCTAGTGCAG”: the binding signal was 5060 fluorescence intensity (a.u.).
To “AACTAATTAATTTATTGGCAGGCACTGGCCTACCAAACCTCGGAGTCACCTAGTGCAG” belongs 53100 fluorescence intensity (a.u.); to “GAGTATAATTACAGCGAATTATCTGAACACTGAATTATCGCGGAGTCACCTAGTGCAG”, 20600 fluorescence intensity (a.u.).
To “AACATTCAAAGTGATTTAATTTCTCCTTGGTCTTGATGTCCGGAGTCACCTAGTGCAG” belongs 6030 fluorescence intensity (a.u.); to “AACATCTGATTGTGTTGAAACACTATTGCTCCATTGTGAACGGAGTCACCTAGTGCAG”, 9650 fluorescence intensity (a.u.); to “TGAAATTGATATTGATGCCATAGTGAATATGACTTCGCATCGGAGTCACCTAGTGCAG”, 39700 fluorescence intensity (a.u.).
Consider “CTATCAATCAATTCCTTCTTATTTAGAAACCAATCAAGATCGGAGTCACCTAGTGCAG”, for which the binding signal was 36400 fluorescence intensity (a.u.).
For “TTGATAATTATTGACGTTTCAAATAATTGTCAAACTTCACCGGAGTCACCTAGTGCAG” the value was 36900 fluorescence intensity (a.u.).
To “AACAAATATGACTTGACAGATTAAAATCCATTTCCACAGTCGGAGTCACCTAGTGCAG” belongs 10700 fluorescence intensity (a.u.).
As to “GAAAATTAGTACTCCCTCCAGTAGCCTTGTTATTGTGCGGCGGAGTCACCTAGTGCAG”, the binding signal is 5790 fluorescence intensity (a.u.).
With “CAGTATGCAAAACTTGGTGATTGAGATATCATCAGTTGCTCGGAGTCACCTAGTGCAG”, the binding signal is 5980 fluorescence intensity (a.u.).
Take “CTTGAATTATGCTGTCTAAAGTTGTCATCTTTCTGAATGACGGAGTCACCTAGTGCAG”: the binding signal is 6970 fluorescence intensity (a.u.).
To “GGATTAATTAGGCTTAATAAATTTGTCTCACAGTTTACATCGGAGTCACCTAGTGCAG” belongs 36600 fluorescence intensity (a.u.); to “TATATATATATATATATATATATATATATAAGAAAATAAACGGAGTCACCTAGTGCAG”, 6130 fluorescence intensity (a.u.).
To “ATACTAATTTGTTCTATAAAGTTGTTGGAGAAACCGTGTTCGGAGTCACCTAGTGCAG” belongs 30800 fluorescence intensity (a.u.); to “TAAAACAAATCATCGAAATATTATCAATGAAATCGTACATCGGAGTCACCTAGTGCAG”, 3550 fluorescence intensity (a.u.); to “AAATATAATTACAGTATAATCGTAGTGTAATTACATTGTACGGAGTCACCTAGTGCAG”, 20800 fluorescence intensity (a.u.).
As for “AGCTCTTAATTAGCAGCACAATTTGCATGCGCATGCACACCGGAGTCACCTAGTGCAG”, the binding signal is 7840 fluorescence intensity (a.u.).
With “TGGTTTGCCCTGATTGGTCGCGTGACGCGTCCTCATATGCCGGAGTCACCTAGTGCAG”, the binding signal was 17500 fluorescence intensity (a.u.).
To “CTAAACGTTGTTAAAATTTGTTTACACTGTCTGGTAATTCCGGAGTCACCTAGTGCAG” belongs 4460 fluorescence intensity (a.u.).
For “CAGCAGATAGAATAATCACAAGAATTACTGTGGTTCTGGGCGGAGTCACCTAGTGCAG” the value was 14100 fluorescence intensity (a.u.); for “TATTAATTATGACAAAACCGACAAATGAGTATACATAAAGCGGAGTCACCTAGTGCAG”, 8180 fluorescence intensity (a.u.).
As for “CATTGATATAAACTGACAACATGCTGCTGCTGAGAATATGCGGAGTCACCTAGTGCAG”, the binding signal was 18300 fluorescence intensity (a.u.).
For “GCATACATAATTGATAGAGAAGAAAATGATGAGAAAACCTCGGAGTCACCTAGTGCAG”, the binding signal was 35800 fluorescence intensity (a.u.).
To “AGTTTTAATAATTGATTTCCAAGAGAAATTTGTGTGTTTGCGGAGTCACCTAGTGCAG” belongs 30300 fluorescence intensity (a.u.).
For “GGTGAGTGACTGGAGAGCCGTTGGTTGGGCACTTGCGGTTCGGAGTCACCTAGTGCAG” the value was 12600 fluorescence intensity (a.u.); for “GTTTCTGATATCATTGATTGCTATCCTCCTCCTCCTCCTTCGGAGTCACCTAGTGCAG”, 34600 fluorescence intensity (a.u.); for “TCAGCACAGTGTTGATTGAGTAGGTTCATCAGGAAGCAGACGGAGTCACCTAGTGCAG”, 13700 fluorescence intensity (a.u.).
To “AGTTCTGTTAATGGATGAATCAGGAAAGATGTGCCACGTACGGAGTCACCTAGTGCAG” belongs 5810 fluorescence intensity (a.u.); to “TTGAGATGATTTACTATTAATTTAGTCTATTGTTGAGATGCGGAGTCACCTAGTGCAG”, 35700 fluorescence intensity (a.u.).
As to “CGTAATTTGTTCTCCGAAGACGTATTTCGTAGAGAGGAGGCGGAGTCACCTAGTGCAG”, the binding signal was 22400 fluorescence intensity (a.u.).
To “TCTACAGTTTAGATAAATTACTTCTAAATTCATAAAATGTCGGAGTCACCTAGTGCAG” belongs 3390 fluorescence intensity (a.u.); to “TTAAGGTTTATCCAATCACATTCAAAGTTACTAACTACAGCGGAGTCACCTAGTGCAG”, 3220 fluorescence intensity (a.u.); to “GCATATAATTAGTTTACCATGGCTTTAATCAATCATATGCCGGAGTCACCTAGTGCAG”, 14900 fluorescence intensity (a.u.).
For “AATCAAATCATGGATATTTTGAAATTTAAAATAAAATCGACGGAGTCACCTAGTGCAG” the value was 6020 fluorescence intensity (a.u.).
For “GATGTTACTCCTAATTAAGAATTTCGGCATTTAGCAAGTACGGAGTCACCTAGTGCAG” the value was 4030 fluorescence intensity (a.u.).

The values are drawn from PMC7819943, “Rice protein-binding microarrays: a tool to detect cis-acting elements near promoter regions in rice”.
